# Measurements: the supplement of paper PMC8728848
# This is one part of the list.
# B1: HMGB1 (Homo sapiens), P09429 (protein)
# chain: MGKGDPKKPRGKMSSYAFFVQTCREEHKKKHPDASVNFSEFSKKCSERWKTMSAKEKGKFEDMAKADKARYEREMKTYIPPKGETKKKFKDPNAPKRPPSAFFLFCSEYRPKIKGEHPGLSIGDVAKKLGEMWNNTAADDKQPYEKKAAKLKEKYEKDIAAYRAKGKPDAAKKGVVKAEKSKKKKEEEEDEEDEEDEEEEEDEEDEDEEEDDDDE
# Key:
# Assay in all cases: glycan array binding signal (z-score within array); higher = stronger binding
# Settings in all cases: glycan notation: IUPAC condensed, linker removed
# Kdn(a2-3)Gal(b1-4)GlcNAc = molecular target: Kdn(a2-3)Gal(b1-4)GlcNAc
# In short: (§1)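 Glycan array data were curated from 3228 arrays in the Consortium for Functional Glycomics database and kept only where the protein sequence was available. Glycan names were converted to IUPAC-condensed notation, and columns mapping to the same glycan were averaged. The binding signal is a within-array Z-score, averaged across arrays of the same protein sequence at different concentrations or buffers and across linkers. Negative Z-scores can be read as non-binding.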
# [1] = molecular target: Man(a1-2)Man(a1-2)Man(a1-3)Man
# In short: as §1
# [2] = molecular target: Man(a1-2)Man(a1-2)Man(a1-3)[Man(a1-2)Man(a1-3)[Man(a1-2)Man(a1-6)]Man(a1-6)]Man(b1-4)GlcNAc(b1-4)GlcNAc
# In short: as §1
# [3] = molecular target: Man(a1-2)Man(a1-2)Man(a1-3)[Man(a1-2)Man(a1-6)[Man(a1-3)]Man(a1-6)]Man(b1-4)GlcNAc(b1-4)GlcNAc
# In short: as §1
# [4] = molecular target: Man(a1-2)Man(a1-2)Man(a1-6)[Man(a1-3)]Man
# In short: as §1
# Man(a1-2)Man(a1-3)Man = molecular target: Man(a1-2)Man(a1-3)Man
# In short: as §1
# [5] = molecular target: Man(a1-2)Man(a1-3)[Man(a1-2)Man(a1-6)]Man
# In short: as §1
# [6] = molecular target: Man(a1-2)Man(a1-3)[Man(a1-3)[Man(a1-6)]Man(a1-6)]Man(b1-4)GlcNAc(b1-4)GlcNAc
# In short: as §1
# [7] = molecular target: Man(a1-2)Man(a1-3)[Man(a1-6)]Man(a1-6)[Man(a1-2)Man(a1-3)]Man(b1-4)GlcNAc(b1-4)GlcNAc
# In short: as §1
# Man(a1-3)[Man(a1-6)]Man = molecular target: Man(a1-3)[Man(a1-6)]Man
# In short: as §1
# [8] = molecular target: Man(a1-3)[Man(a1-6)]Man(a1-6)[Man(a1-3)]Man(b1-4)GlcNAc(b1-4)GlcNAc
# In short: as §1
# [9] = molecular target: Man(a1-3)[Man(a1-6)]Man(b1-4)GlcNAc(b1-4)GlcNAc
# In short: as §1
# Man(b1-4)GlcNAc = molecular target: Man(b1-4)GlcNAc
# In short: as §1
# Neu5Ac(a2-3)Gal = molecular target: Neu5Ac(a2-3)Gal
# In short: as §1
# [10] = molecular target: Neu5Ac(a2-3)Gal(b1-3)GalNAc
# In short: as §1
# [11] = molecular target: Neu5Ac(a2-3)Gal(b1-3)GalNAc(b1-3)Gal(a1-4)Gal(b1-4)Glc
# In short: as §1
# [12] = molecular target: Neu5Ac(a2-3)Gal(b1-3)GalNAc(b1-4)[Neu5Ac(a2-3)]Gal(b1-4)Glc
# In short: as §1
# [13] = molecular target: Neu5Ac(a2-3)Gal(b1-3)GalNAc6S
# In short: as §1
# [14] = molecular target: Neu5Ac(a2-3)Gal(b1-3)GlcNAc
# In short: as §1
# [15] = molecular target: Neu5Ac(a2-3)Gal(b1-3)GlcNAc(b1-3)Gal(b1-4)GlcNAc
# In short: as §1
# [16] = molecular target: Neu5Ac(a2-3)Gal(b1-3)GlcNAc6S
# In short: as §1
# [17] = molecular target: Neu5Ac(a2-3)Gal(b1-3)[Fuc(a1-4)]GlcNAc
# In short: as §1
# [18] = molecular target: Neu5Ac(a2-3)Gal(b1-3)[Fuc(a1-4)]GlcNAc(b1-3)Gal(b1-4)[Fuc(a1-3)]GlcNAc
# In short: as §1
# [19] = molecular target: Neu5Ac(a2-3)Gal(b1-3)[Neu5Ac(a2-3)Gal(b1-4)]GlcNAc
# In short: as §1
# [20] = molecular target: Neu5Ac(a2-3)Gal(b1-3)[Neu5Ac(a2-6)]GalNAc
# In short: as §1
# Neu5Ac(a2-3)Gal(b1-4)Glc = molecular target: Neu5Ac(a2-3)Gal(b1-4)Glc
# In short: as §1
# [21] = molecular target: Neu5Ac(a2-3)Gal(b1-4)GlcNAc
# In short: as §1
# [22] = molecular target: Neu5Ac(a2-3)Gal(b1-4)GlcNAc(b1-3)Gal(b1-4)GlcNAc
# In short: as §1
# [23] = molecular target: Neu5Ac(a2-3)Gal(b1-4)GlcNAc(b1-3)Gal(b1-4)GlcNAc(b1-3)Gal(b1-4)GlcNAc
# In short: as §1
# [24] = molecular target: Neu5Ac(a2-3)Gal(b1-4)GlcNAc(b1-3)Gal(b1-4)[Fuc(a1-3)]GlcNAc
# In short: as §1
# [25] = molecular target: Neu5Ac(a2-3)Gal(b1-4)GlcNAc6S
# In short: as §1
# [26] = molecular target: Neu5Ac(a2-3)Gal(b1-4)[Fuc(a1-3)]GlcNAc
# In short: as §1
# [27] = molecular target: Neu5Ac(a2-3)Gal(b1-4)[Fuc(a1-3)]GlcNAc(b1-3)Gal
# In short: as §1
# [28] = molecular target: Neu5Ac(a2-3)Gal(b1-4)[Fuc(a1-3)]GlcNAc(b1-3)Gal(b1-4)GlcNAc
# In short: as §1
# [29] = molecular target: Neu5Ac(a2-3)Gal(b1-4)[Fuc(a1-3)]GlcNAc(b1-3)Gal(b1-4)[Fuc(a1-3)]GlcNAc(b1-3)Gal(b1-4)[Fuc(a1-3)]GlcNAc
# In short: as §1
# [30] = molecular target: Neu5Ac(a2-3)Gal(b1-4)[Fuc(a1-3)]GlcNAc6S
# In short: as §1
# [31] = molecular target: Neu5Ac(a2-3)Gal6S(b1-4)GlcNAc
# In short: as §1
# [32] = molecular target: Neu5Ac(a2-3)Gal6S(b1-4)[Fuc(a1-3)]GlcNAc
# In short: as §1
# Neu5Ac(a2-3)GalNAc = molecular target: Neu5Ac(a2-3)GalNAc
# In short: as §1
# [33] = molecular target: Neu5Ac(a2-3)GalNAc(b1-4)GlcNAc
# In short: as §1
# [34] = molecular target: Neu5Ac(a2-3)[GalNAc(b1-4)]Gal(b1-4)Glc
# In short: as §1
# [35] = molecular target: Neu5Ac(a2-3)[GalNAc(b1-4)]Gal(b1-4)GlcNAc
# In short: as §1
# [36] = molecular target: Neu5Ac(a2-3)[Neu5Ac(a2-6)]GalNAc
# In short: as §1
# [37] = molecular target: Neu5Ac(a2-6)Gal(b1-4)GlcNAc
# In short: as §1
# [38] = molecular target: Neu5Ac(a2-6)Gal(b1-4)GlcNAc(b1-2)Man(a1-3)[Neu5Ac(a2-6)Gal(b1-4)GlcNAc(b1-2)Man(a1-6)]Man(b1-4)GlcNAc(b1-4)GlcNAc
# In short: as §1
# [39] = molecular target: Neu5Ac(a2-6)Gal(b1-4)GlcNAc(b1-3)Gal(b1-4)GlcNAc
# In short: as §1
# [40] = molecular target: Neu5Ac(a2-6)Gal(b1-4)GlcNAc(b1-3)Gal(b1-4)[Fuc(a1-3)]GlcNAc(b1-3)Gal(b1-4)[Fuc(a1-3)]GlcNAc
# In short: as §1
# [41] = molecular target: Neu5Ac(a2-6)Gal(b1-4)GlcNAc6S
# In short: as §1
# Neu5Ac(a2-6)GalNAc = molecular target: Neu5Ac(a2-6)GalNAc
# In short: as §1
# [42] = molecular target: Neu5Ac(a2-6)GalNAc(b1-4)GlcNAc
# In short: as §1
# Neu5Ac(a2-8)Neu5Ac = molecular target: Neu5Ac(a2-8)Neu5Ac
# In short: as §1
# [43] = molecular target: Neu5Ac(a2-8)Neu5Ac(a2-3)Gal(b1-4)Glc
# In short: as §1
# [44] = molecular target: Neu5Ac(a2-8)Neu5Ac(a2-3)[GalNAc(b1-4)]Gal(b1-4)Glc
# In short: as §1
# [45] = molecular target: Neu5Ac(a2-8)Neu5Ac(a2-8)Neu5Ac
# In short: as §1
# [46] = molecular target: Neu5Ac(a2-8)Neu5Ac(a2-8)Neu5Ac(a2-3)Gal(b1-4)Glc
# In short: as §1
# [47] = molecular target: Neu5Ac(a2-8)Neu5Ac(a2-8)Neu5Ac(a2-3)[GalNAc(b1-4)]Gal(b1-4)Glc
# In short: as §1
# [48] = molecular target: Neu5Ac(a2-8)Neu5Ac(a2-8)Neu5Ac(a2-8)Neu5Ac(a2-3)[GalNAc(b1-4)]Gal(b1-4)Glc
# In short: as §1
# [49] = molecular target: Neu5Ac9Ac(a2-6)Gal(b1-4)GlcNAc
# In short: as §1
# [50] = molecular target: Neu5Gc(a2-3)Gal(b1-3)GlcNAc
# In short: as §1
# [51] = molecular target: Neu5Gc(a2-3)Gal(b1-3)[Fuc(a1-4)]GlcNAc
# In short: as §1
# Neu5Gc(a2-3)Gal(b1-4)Glc = molecular target: Neu5Gc(a2-3)Gal(b1-4)Glc
# In short: as §1
# [52] = molecular target: Neu5Gc(a2-3)Gal(b1-4)GlcNAc
# In short: as §1
# [53] = molecular target: Neu5Gc(a2-3)Gal(b1-4)[Fuc(a1-4)]GlcNAc
# In short: as §1
# [54] = molecular target: Neu5Gc(a2-6)Gal(b1-4)GlcNAc
# In short: as §1
# Neu5Gc(a2-6)GalNAc = molecular target: Neu5Gc(a2-6)GalNAc
# In short: as §1
binder,measurement,setting,value
B1,glycan array binding signal (z-score),Kdn(a2-3)Gal(b1-4)GlcNAc,1.47
same,glycan array binding signal (z-score),[1],-0.413
same,glycan array binding signal (z-score),[2],-0.292
same,glycan array binding signal (z-score),[3],-0.385
same,glycan array binding signal (z-score),[4],1.21
same,glycan array binding signal (z-score),Man(a1-2)Man(a1-3)Man,-0.124
same,glycan array binding signal (z-score),[5],0.14
same,glycan array binding signal (z-score),[6],-0.414
same,glycan array binding signal (z-score),[7],-0.316
same,glycan array binding signal (z-score),Man(a1-3)[Man(a1-6)]Man,-0.418
same,glycan array binding signal (z-score),[8],-0.404
same,glycan array binding signal (z-score),[9],-0.366
same,glycan array binding signal (z-score),Man(b1-4)GlcNAc,0.327
same,glycan array binding signal (z-score),Neu5Ac(a2-3)Gal,-0.25
same,glycan array binding signal (z-score),[10],-0.434
same,glycan array binding signal (z-score),[11],-0.361
same,glycan array binding signal (z-score),[12],0.568
same,glycan array binding signal (z-score),[13],0.193
same,glycan array binding signal (z-score),[14],-0.125
same,glycan array binding signal (z-score),[15],-0.201
same,glycan array binding signal (z-score),[16],0.393
same,glycan array binding signal (z-score),[17],-0.112
same,glycan array binding signal (z-score),[18],0.178
same,glycan array binding signal (z-score),[19],-0.299
same,glycan array binding signal (z-score),[20],-0.19
same,glycan array binding signal (z-score),Neu5Ac(a2-3)Gal(b1-4)Glc,-0.047
same,glycan array binding signal (z-score),[21],-0.27
same,glycan array binding signal (z-score),[22],0.045
same,glycan array binding signal (z-score),[23],-0.45
same,glycan array binding signal (z-score),[24],0.047
same,glycan array binding signal (z-score),[25],1.05
same,glycan array binding signal (z-score),[26],-0.359
same,glycan array binding signal (z-score),[27],-0.352
same,glycan array binding signal (z-score),[28],-0.125
same,glycan array binding signal (z-score),[29],-0.332
same,glycan array binding signal (z-score),[30],0.28
same,glycan array binding signal (z-score),[31],0.25
same,glycan array binding signal (z-score),[32],0.4
same,glycan array binding signal (z-score),Neu5Ac(a2-3)GalNAc,-0.289
same,glycan array binding signal (z-score),[33],-0.303
same,glycan array binding signal (z-score),[34],-0.407
same,glycan array binding signal (z-score),[35],-0.285
same,glycan array binding signal (z-score),[36],-0.145
same,glycan array binding signal (z-score),[37],-0.33
same,glycan array binding signal (z-score),[38],-0.425
same,glycan array binding signal (z-score),[39],-0.378
same,glycan array binding signal (z-score),[40],-0.308
same,glycan array binding signal (z-score),[41],0.628
same,glycan array binding signal (z-score),Neu5Ac(a2-6)GalNAc,-0.009
same,glycan array binding signal (z-score),[42],0.028
same,glycan array binding signal (z-score),Neu5Ac(a2-8)Neu5Ac,0.031
same,glycan array binding signal (z-score),[43],-0.239
same,glycan array binding signal (z-score),[44],-0.141
same,glycan array binding signal (z-score),[45],0.005
same,glycan array binding signal (z-score),[46],-0.297
same,glycan array binding signal (z-score),[47],-0.096
same,glycan array binding signal (z-score),[48],0.238
same,glycan array binding signal (z-score),[49],-0.073
same,glycan array binding signal (z-score),[50],-0.245
same,glycan array binding signal (z-score),[51],1.03
same,glycan array binding signal (z-score),Neu5Gc(a2-3)Gal(b1-4)Glc,0.675
same,glycan array binding signal (z-score),[52],-0.256
same,glycan array binding signal (z-score),[53],-0.179
same,glycan array binding signal (z-score),[54],0.015
same,glycan array binding signal (z-score),Neu5Gc(a2-6)GalNAc,-0.195
